{"source": "PubChem BioAssay (NCATS)", "key": {"[1]": {"assay": "qHTS of pediatric cancer cell lines to identify multiple opportunities for drug repurposing: Primary screen for BT-12 cells (AID 1347101); note: nearly all actives have a fitted effect of over 25% in size", "outline": "(§1)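 Cells (500-1,000/well) rested 5 h, then received compounds for 48 h; metabolically active cells were measured by CellTiter-Glo luminescence. Final concentrations spanned up to 46 µM (MIPE, 11-point) or 0.59 nM-46 µM (NPC, 8-point) in primary screens, 11-point in follow-ups.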"}, "[2]": {"assay": "Primary qHTS for small molecule stabilizers of the endoplasmic reticulum resident proteome: Secreted ER Calcium Modulated Protein (SERCaMP) assay (AID 1508630)", "conditions": "SH-SY5Y GLuc-SERCaMP (Gaussia luciferase released on ER calcium loss) secretion, thapsigargin, luminescence; activity change, negative = inhibition: at 38.4 µM (top of the series)", "outline": "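GLuc-SERCaMP-expressing SH-SY5Y cells, pretreated 16 h with compound, are challenged with thapsigargin to empty ER calcium stores; after 4 h, coelenterazine is added directly to the medium and luminescence is imaged.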"}, "[3]": {"assay": "Primary qHTS for inhibitors of nuclear receptor binding SET domain protein 2 (NSD2) in an isogenic RCH-ACV NSD2 p.E1099K mutant (9B) (AID 1645876)"}, "[4]": {"assay": "Primary qHTS for inhibitors of nuclear receptor binding SET domain protein 2 (NSD2) in an RCH-ACV wild type WT cells (2C) (AID 1645877)", "conditions": "activity change, negative = cell killing: at 44.9 µM (top of the series)"}, "HEK293": {"system": "HEK293", "assay": "Cytotoxic Profiling of Annotated Libraries Using Quantitative High-Throughput Screening (AID 1296008)", "conditions": "Five cell lines viability, CellTiter-Glo ATP luminescence, 48-72 h; max response: stronger effect = lower value", "outline": "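Compounds were pin-transferred onto cells and incubated 48 or 72 hr at 37 degree Celsius, 95% humidity. CellTiter-Glo was added, plates sat 10 min at room temperature, then ATP-coupled luminescence was imaged as the viability read-out.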"}, "MKL-2": {"system": "MKL-2", "assay": "qHTS assay to identify novel small-molecules to repurpose for Merkel cell carcinoma treatment (AID 1296009)", "conditions": "MCC and control cell lines, CellTiter-Glo viability, 72 h; activity change, negative = cytotoxicity: at 46 µM (top of the series)", "outline": "(§2)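 qHTS format: cells treated with library compounds in DMSO across 8 (NPC) or 11 (MIPE) concentrations. Readout after 72 hr at 37 degree celsius was CellTiter-Glo luminescence.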"}, "WaGa": {"system": "WaGa", "assay": "qHTS assay to identify novel small-molecules to repurpose for Merkel cell carcinoma treatment (AID 1296009)", "conditions": "MCC and control cell lines, CellTiter-Glo viability, 72 h; series mostly up to 46 µM", "outline": "as §2"}, "OV90": {"system": "OV90", "assay": "Primary qHTS to identify gynecologic anti-cancer compounds using libraries of approved drugs and bioactive compounds (AID 1345084)", "conditions": "Gynecologic cancer cell panel viability, ATPlite luminescence, 48 h; series mostly up to 57.5 µM", "outline": "(§3)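 Measured: luminescence after ATPlite addition (15 min, RT). Exposure: 48 h, 37 C, 5% CO2.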"}, "[5]": {"assay": "Drug repurposing screens with cells derived from glioblastoma tumor samples (AID 1345199)", "conditions": "GBM patient neurospheres viability, ATP luminescence, 48 h; Potency: tumour line A unless noted; activity, negative = cell killing: at 46 µM (top of the series), tumour line A unless noted", "outline": "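Four patient lines of CD133+ GBM neurospheres were screened at several concentrations; hits were retested in those lines plus three slower-growing GBM lines, using 48-hour treatment and ATP-based viability.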"}, "[6]": {"assay": "qHTS of pediatric cancer cell lines to identify multiple opportunities for drug repurposing: Primary screen for SK-N-MC cells (AID 1347093)", "conditions": "SK-N-MC viability, CellTiter-Glo luminescence, 48 h; activity change, negative = cytotoxic: at 46 µM (top of the series)", "outline": "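Metabolically active cells were quantified by ATP-dependent luminescence (CellTiter-Glo, 15 min at room temperature) following 48 h treatment. Cells had been plated at 500-1,000 per well and settled for 5 h beforehand.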"}, "[7]": {"assay": "qHTS of pediatric cancer cell lines to identify multiple opportunities for drug repurposing: Primary screen for NB-EBc1 cells (AID 1347095)", "outline": "(§4)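 500-1,000 cells/well; 5 h pre-incubation 37 °C/5% CO2; compound pinned; 48 h; CellTiter-Glo, 15 min RT; luminescence. MIPE 11-pt from 0.78 nM, NPC 8-pt from 0.59 nM final. Bortezomib 2.3 µM final as positive control.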"}, "[8]": {"assay": "A High-Content qHTS Against Drug Library for the Identification of Small Molecules that Inhibit DYT1 Early Onset Primary Dystonia-Associated Cell Pathology (AID 1645839; calls by dose curve)", "outline": "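Readout: %pathology, the punctate EGFP-TorsinA distribution from imaging, as the primary channel and cell count as the toxicity counterscreen. HEK293 Flp-In cells expressing delE TorsinA were induced with tetracycline and treated with compound for 48 h.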"}, "SKOV3": {"system": "SKOV3", "assay": "Primary qHTS to identify gynecologic anti-cancer compounds using libraries of approved drugs and bioactive compounds (AID 1345084)", "conditions": "Gynecologic cancer cell panel viability, ATPlite luminescence, 48 h; series mostly up to 57.5 µM", "outline": "as §3"}, "[9]": {"assay": "qHTS of pediatric cancer cell lines to identify multiple opportunities for drug repurposing: Primary screen for SK-N-SH cells (AID 1347098)", "conditions": "SK-N-SH viability, CellTiter-Glo luminescence, 48 h; activity change, negative = cytotoxic: at 57 µM (top of the series)", "outline": "as §1"}, "[10]": {"assay": "qHTS of pediatric cancer cell lines to identify multiple opportunities for drug repurposing: Primary screen for OHS-50 cells (AID 1347103)", "outline": "as §1"}, "[11]": {"assay": "qHTS of pediatric cancer cell lines to identify multiple opportunities for drug repurposing: Primary screen for Saos-2 cells (AID 1347097)", "conditions": "Saos-2 viability, CellTiter-Glo ATP luminescence, 48 h; activity change, negative = cytotoxic: at 46 µM (top of the series)", "outline": "as §4"}}, "note": "Several values for one entry are separate records, joined by “and”; a condition that tells them apart may be missing. Identical values can stand only once. Inconclusive means that the source gave no clear call. Such entries were picked first, then a sample of the others. For part of these data: No potency is given beside an inconclusive call; the fits are too rough. Activity calls are given as the source filed them. Unless noted, calls come from the whole dose curve; as a rule, active = well fitted curve in the direction sought with a large enough effect; inconclusive = small, poorly fitted or top-dose-only effect, or another doubt; inactive = no such curve, though single readings can be large; an effect the other way counts as inactive or inconclusive. Potency is the fitted concentration of half-maximal effect; tags give direction and shape of the fitted curve. Throughout, for activity change, negative = cytotoxicity: % is set by controls: 0 for no effect and ±100 for the full control effect. Throughout, for activity change, negative = inhibition: % is set by controls: 0 for no effect and ±100 for the full control effect. Throughout, for activity, negative = cell killing: % is set by controls: 0 for no effect and ±100 for the full control effect. Throughout, for activity, negative = cell killing: nearly all actives have a fitted effect of over 40% in size. Throughout, for max response: % is set by controls: 0 for no effect and ±100 for the full control effect. Throughout, for max response: nearly all actives have a fitted effect of over 60% in size."}
{"smiles": "CC(C)(C)NCC(O)c1cc(O)cc(O)c1", "note": "(stereo not drawn)", "values": [{"measurement": "Potency", "setting": "[1]", "result": "inactive"}, {"measurement": "Potency", "setting": "[2]", "result": "inactive"}, {"measurement": "Potency", "setting": "[3]", "result": "inconclusive [inhibitor, single point]"}, {"measurement": "Potency", "setting": "[4]", "result": "inconclusive [inhibitor, single point]"}, {"measurement": "max response", "setting": "HEK293", "result": "inactive: -2.84%"}, {"measurement": "Potency", "setting": "MKL-2", "result": "inactive"}, {"measurement": "Potency", "setting": "WaGa", "result": "inactive"}, {"measurement": "Potency", "setting": "OV90", "result": "inconclusive [cytotoxic, single point]"}, {"measurement": "Potency", "setting": "[5]", "result": "inactive"}]}
{"smiles": "O=C(CCCCCCC(=O)Nc1ccccc1)NO", "values": [{"measurement": "Potency", "setting": "[6]", "result": "inconclusive [cytotoxic, full curve, poor fit]"}, {"measurement": "Potency", "setting": "[7]", "result": "active: 1 nM and active: 1.48 µM"}, {"measurement": "Potency", "setting": "[1]", "result": "active: 6.92 µM and active: 17.2 µM"}, {"measurement": "Potency", "setting": "[8]", "result": "inconclusive [inhibitor, full curve, poor fit]"}, {"measurement": "Potency", "setting": "HEK293", "result": "active: 5.96 µM and active: 8.33 µM"}, {"measurement": "Potency", "setting": "SKOV3", "result": "active: 3.16 µM and active: 12.6 µM"}]}
{"smiles": "C=C1C(=C/C=C2\\CCC[C@]3(C)[C@@H]([C@H](C)/C=C/[C@@H](O)C4CC4)CC[C@@H]23)C[C@@H](O)C[C@@H]1O", "values": [{"measurement": "Potency", "setting": "[6]", "result": "inconclusive [cytotoxic, single point]"}, {"measurement": "Potency", "setting": "[7]", "result": "inconclusive [cytotoxic, single point]"}, {"measurement": "Potency", "setting": "[9]", "result": "inconclusive [cytotoxic, partial curve, poor fit]"}, {"measurement": "Potency", "setting": "[1]", "result": "inconclusive [cytotoxic, single point]"}, {"measurement": "Potency", "setting": "[10]", "result": "active: 30.9 µM"}, {"measurement": "Potency", "setting": "[2]", "result": "inactive"}, {"measurement": "Potency", "setting": "[8]", "result": "inconclusive [inhibitor, partial curve, poor fit]"}, {"measurement": "Potency", "setting": "[4]", "result": "active: 16.8 µM"}, {"measurement": "Potency", "setting": "HEK293", "result": "inconclusive [inhibitor, single point]"}, {"measurement": "Potency", "setting": "MKL-2", "result": "inconclusive [inhibitor, partial curve, poor fit]"}, {"measurement": "Potency", "setting": "WaGa", "result": "inconclusive [inhibitor, single point]"}, {"measurement": "Potency", "setting": "SKOV3", "result": "inactive"}]}
{"smiles": "NCCNc1cccc2ccccc12", "values": [{"measurement": "Potency", "setting": "[3]", "result": "inconclusive [inhibitor, single point]"}, {"measurement": "Potency", "setting": "[4]", "result": "inconclusive [inhibitor, single point]"}, {"measurement": "max response", "setting": "HEK293", "result": "inactive: -7.17%"}, {"measurement": "Potency", "setting": "MKL-2", "result": "inconclusive [inhibitor, single point]"}, {"measurement": "Potency", "setting": "WaGa", "result": "inconclusive [inhibitor, partial curve]"}, {"measurement": "Potency", "setting": "[5]", "result": "active: 20 µM"}]}
{"smiles": "CCCCCC=CCC=CCCCCCCCC(=O)OCC", "values": [{"measurement": "Potency", "setting": "[7]", "result": "inconclusive [cytotoxic, single point]"}, {"measurement": "Potency", "setting": "[11]", "result": "inconclusive [cytotoxic, single point]"}, {"measurement": "Potency", "setting": "[9]", "result": "inconclusive [cytotoxic, partial curve, poor fit]"}, {"measurement": "Potency", "setting": "HEK293", "result": "inconclusive [inhibitor, single point]"}, {"measurement": "Potency", "setting": "WaGa", "result": "inconclusive [inhibitor, single point]"}, {"measurement": "Potency", "setting": "[5]", "result": "inconclusive [inhibitor, partial curve]"}]}
{"smiles": "CO/N=C(/C(=O)N[C@@H]1C(=O)N2C(C(=O)OCOC(=O)C(C)(C)C)=C(C)CS[C@H]12)c1csc(N)n1", "values": [{"measurement": "Potency", "setting": "[9]", "result": "inactive"}, {"measurement": "Potency", "setting": "[1]", "result": "inactive"}, {"measurement": "Potency", "setting": "[2]", "result": "inconclusive [inhibitor, partial curve, poor fit]"}, {"measurement": "Potency", "setting": "[3]", "result": "inconclusive [inhibitor, single point]"}, {"measurement": "Potency", "setting": "[4]", "result": "inconclusive [inhibitor, single point]"}, {"measurement": "max response", "setting": "HEK293", "result": "inactive: 4.75%"}, {"measurement": "Potency", "setting": "MKL-2", "result": "inconclusive [inhibitor, partial curve, poor fit]"}, {"measurement": "Potency", "setting": "WaGa", "result": "inconclusive [inhibitor, single point]"}, {"measurement": "Potency", "setting": "SKOV3", "result": "inactive"}, {"measurement": "Potency", "setting": "[5]", "result": "inactive"}]}
{"smiles": "CCOC(=O)[C@H](CCc1ccccc1)N[C@@H](C)C(=O)N1Cc2ccccc2C[C@H]1C(=O)O", "values": [{"measurement": "Potency", "setting": "[6]", "result": "inconclusive [cytotoxic, single point]"}, {"measurement": "Potency", "setting": "[7]", "result": "inactive"}, {"measurement": "Potency", "setting": "[11]", "result": "inconclusive [cytotoxic, single point]"}, {"measurement": "Potency", "setting": "[1]", "result": "inconclusive [cytotoxic, partial curve, poor fit]"}, {"measurement": "Potency", "setting": "[10]", "result": "inactive"}, {"measurement": "Potency", "setting": "[2]", "result": "inconclusive [inhibitor, single point]"}, {"measurement": "Potency", "setting": "[8]", "result": "inactive"}, {"measurement": "Potency", "setting": "[3]", "result": "inconclusive [inhibitor, single point]"}, {"measurement": "Potency", "setting": "[4]", "result": "inconclusive [inhibitor, single point]"}, {"measurement": "Potency", "setting": "HEK293", "result": "inconclusive [inhibitor, single point]"}, {"measurement": "Potency", "setting": "MKL-2", "result": "inconclusive [inhibitor, single point]"}, {"measurement": "Potency", "setting": "WaGa", "result": "inconclusive [inhibitor, single point]"}, {"measurement": "Potency", "setting": "SKOV3", "result": "inactive"}, {"measurement": "Potency", "setting": "[5]", "result": "inactive"}]}
